Data from PubChem BioAssay AID1347073 (National Center for Advancing Translational Sciences (NCATS), 2019).
About 200 (0.44%) of roughly 45,000 compounds were called active. Inconclusive results (about 7%) are left out. Calls come from the whole dose curve; as a rule, active = well fitted activation curve with a large enough effect; inconclusive = small, poorly fitted or top-dose-only effect; inactive = no such curve, though single readings can be large or run the other way. This is one part of the list.

Experiment: qHTS of TDP-43 Inhibitors: NCGC Sytravon Library Screen; note: 0% is about no effect; nearly all actives have a fitted effect of over 55% in size
Details: yeast TDP-43 toxicity rescue, BacTiter-Glo growth, 24 h; series mostly up to 46.1 µM; growth rescue (activation): at the top concentration
Method in brief: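 TDP-43-expressing yeast, pregrown in raffinose, seeded at OD600 0.02 in galactose medium with compound for 24 hr at 30 deg C. Growth read by BacTiter-Glo luminescence, so rescue of toxicity appears as activation.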

SMILES | growth rescue (activation)
CC(C)OC(=O)Cn1c(=O)oc2ccccc21 | inactive: 3.08%
CCOc1ccc(N(C(C)C(=O)Nc2cccnc2)S(C)(=O)=O)cc1 (stereo not drawn) | inactive: 0.397%
O=C1C2CCCN2C(c2cccs2)N1c1ccc(F)cc1 (stereo not drawn) | inactive: 11.6%
CCCNC(=O)c1cc(C2CCCN(C(=O)c3ccc4c(c3)CCO4)C2)on1 (stereo not drawn) | inactive: 7.41%
Cc1ccc(S(=O)(=O)NCC(=O)N(CC(=O)NCc2ccco2)Cc2ccccc2)cc1 | inactive: 14.8%
Cn1c2ccccc2c(=O)c2c(=O)n(Cc3ccco3)c(COc3ccccc3)nc21 | inactive: -15.2%
O=c1c2ccccc2nc(/C=C/c2ccccc2)n1CCc1ccccc1 | inactive: 0.538%
COc1ccccc1/C=C/C(=O)NCC(=O)N/N=C(\CCC(=O)O)c1ccccc1 | inactive: -15.8%
Cc1ccc(N(C(=O)NC2CCCCC2)C2=NCCCCC2)cc1 | inactive: 13.1%
CCN1CCN(C(=O)c2cc3c(=O)n4ccccc4nc3s2)CC1 | inactive: 0.923%
CN1CCCN(S(=O)(=O)c2ccc3ccccc3c2)CC1 | inactive: -0.437%
O=C(Nc1cccn2nc(COCCO)nc12)C(c1ccccc1)c1ccccc1 | inactive: 12.7%
O=C(CN1CCN(Cc2ccc(Cl)cc2)CC1)N/N=C/c1c[nH]c2ccccc12 | inactive: 0.728%
O=c1c2[nH]c3ccc(Br)cc3c2ncn1Cc1ccncc1 | inactive: -2.43%
O=S(=O)(c1ccc(Cl)cc1)N1CCN(CCc2ccncc2)CC1 | inactive: -6.16%
c1ccc(-c2nc3c4ccccc4ccn3c2CN2CCCCC2)cc1 | inactive: -2.23%
O=C(Nc1cccc(Cl)c1)Nc1ccccc1NS(=O)(=O)c1cccs1 | inactive: 3.73%
COc1ccc2nc(C)cc(SCC(=O)N/N=C/c3ccc(O)c(O)c3)c2c1 | inactive: 2.71%
COc1ccc(NC(=O)C/C(C)=N/NC(=O)C(=O)Nc2cccc(Cl)c2C)c(OC)c1 | inactive: 20.7%
CCOCCCn1c(=N)c(S(=O)(=O)c2ccccc2)cc2c(=O)n3cc(C)ccc3nc21 | inactive: 14.3%
CC(=O)Nc1ccc(C(=O)OCc2ccc(F)cc2)cc1 | inactive: 38.3%
CC1(C(=O)NS(=O)(=O)c2ccc(C#N)cc2)CCN1C(=O)Cc1ccc(Cl)cc1Cl (stereo not drawn) | inactive: -0.628%
Cc1cnc2c(C(=O)O)cnn2c1 | inactive: 3.41%
Cc1ccc(S(=O)(=O)N/N=C2/CC(=O)CC(C)(C)C2)cc1[N+](=O)[O-] | inactive: 0.338%
CC(C)C(NS(=O)(=O)c1ccccc1)C(=O)OCC(=O)NNC(=O)c1ccccc1 (stereo not drawn) | inactive: 18.6%
Cc1ccc(-n2[nH]c(=O)c(-c3ccccn3)c2C)cc1 | inactive: 15.1%
CCCNC(=O)C1(C)CCN(C(=O)COc2ccc(Cl)cc2Cl)C1 (stereo not drawn) | inactive: 3.86%

SMILES | growth rescue (activation)
COCC(C)NC(=S)NCCc1ccc(Cl)cc1Cl (stereo not drawn) | inactive: 25.6%
O=C(Nc1cccc(Cl)c1)N1Cc2ccccc2Oc2ncccc21 | inactive: 12.5%
Nc1c(O)ccc2c1C(=O)c1ccccc1C2=O | inactive: -41.8%
O=C(/C=C/c1ccc(S(=O)(=O)NCc2ccco2)cc1)NCc1cccc(Cl)c1 | inactive: 8.13%
CCN1CCN(C(=O)c2cc3cc([N+](=O)[O-])ccc3oc2=O)CC1 | inactive: 16.5%
COc1ccccc1C(O)(C(=O)NN(C)c1ccccc1)c1ccccc1OC | inactive: 12.3%
Cc1cc(-n2c(C)cc(C(=O)CSc3nncn3C)c2C)no1 | inactive: 6.1%
CC1(C)Cc2nc(Cl)c(C(=O)O)cc2CO1 | inactive: -18.4%
COc1ccccc1/C=C/C=N/n1c(-c2ccc(F)cc2)n[nH]c1=S | inactive: 11.1%
CCOC(=O)C1(CCOc2ccccc2)CCN(Cc2cccn2-c2ncccn2)CC1 | inactive: 8.98%
NC(c1ccccc1)c1csc(NC(=O)NCC2CCCCC2)n1 (stereo not drawn) | inactive: 15.8%
CCOC(=O)Nc1ccc2c(c1)N(C(=O)CCN1CCOCC1)c1ccccc1S2 | inactive: -1.46%
CN(C)/C=C/c1onc(-c2c(F)cccc2Cl)c1C#N | inactive: -1.82%
CN(CC(=O)NCc1ccccc1Cl)CC(=O)Nc1cccc(F)c1 | inactive: 1.4%
COc1ccc(/C=C2\SC(=S)N(CCC(=O)Nc3ccccn3)C2=O)cc1OC | inactive: 11.4%
COC(=O)N/N=C/c1cc(Cl)cc(Cl)c1OCc1ccccc1F | inactive: 15.2%
Nc1nonc1-n1nnc(C(=O)N/N=C\c2cccc(Cl)c2)c1CN1CCOCC1 | inactive: 10.5%
O=S(=O)(NCC1CCCN(Cc2ccccc2O)C1)c1cccc2cccnc12 (stereo not drawn) | inactive: 2.37%
O=C(c1cc[n+]([O-])cc1)N1CCc2c([nH]c3ccccc23)C1c1ccccc1Cl (stereo not drawn) | inactive: -4.56%
COc1ccc(/C=C2\SC(=O)N(CCC(=O)N3CCCCC3)C2=O)cc1OC | inactive: -12.1%
CCOC(=O)C1(CCOC)CCN(Cc2ccc(C3CCCCO3)s2)CC1 (stereo not drawn) | inactive: -9.94%
Cc1cc(C)c2c(=O)[nH]c(SCc3ccccc3C)nc2n1 | inactive: -8.93%
CC(=O)CC1=NC(C)(C)Cc2ccccc21 | inactive: 20.8%
Cc1noc(NS(=O)(=O)c2ccc(NC(=O)c3ccccc3NS(=O)(=O)c3ccc(F)cc3)cc2)c1C | inactive: 2.9%
Cn1c(CNc2ccc(F)cc2)nnc1SCC(=O)NNC(=O)Cc1ccccc1 | inactive: 12.5%
Cc1ccc(S(=O)(=O)Oc2ccccc2/C=C2\SC(=O)NC2=O)cc1 | inactive: 7.59%
